Here are results for 1 molecule from patent publication US20240141007A1.

The assay addresses PD-1 (UniProt Q15116). Briefly: cell-based or functional assay.
UniProt Q15116, sequence (Q15116 25-288 limits assumed): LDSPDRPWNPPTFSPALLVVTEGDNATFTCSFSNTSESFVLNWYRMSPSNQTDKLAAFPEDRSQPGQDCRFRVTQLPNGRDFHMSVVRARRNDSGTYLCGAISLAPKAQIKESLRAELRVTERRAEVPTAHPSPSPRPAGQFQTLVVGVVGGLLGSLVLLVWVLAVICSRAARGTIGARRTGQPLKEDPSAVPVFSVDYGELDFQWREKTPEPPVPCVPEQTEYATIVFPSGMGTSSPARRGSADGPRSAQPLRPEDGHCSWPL

B1: CM4 (antibody, not shown: a dimerising Fc or GST)
heavy 1: QVQLVQSGVEVKKPGASVKVSCKASGYTFTNYYMYWVRQAPGQGLEWMGGINPSNGGTNFNEKFKNRVTLTTDSSTTTAYMELKSLQFDDTAVYYCARRDYRFDMGFDYWGQGTTVTVSSASTKGPSVFPLAPSSKSTSGGTAALGCLVKDYFPEPVTVSWNSGALTSGVHTFPAVLQSSGLYSLSSVVTVPSSSLGTQTYICNVNHKPSNTKVDKKVEPKSC[about 150 residues cut from this listing]
heavy 2: QVQLVQSGVEVKKPGASVKVSCKASGYTFTNYYMYWVRQAPGQGLEWMGGINPSNGGTNFNEKFKNRVTLTTDSSTTTAYMELKSLQFDDTAVYYCARRDYRFDMGFDYWGQGTTVTVSSASTKGPSVFPLAPSSKSTSGGTAALGCLVKDYFPEPVTVSWNSGALTSGVHTFPAVLQSSGLYSLSSVVTVPSSSLGTQTYICNVNHKPSNTKVDKKVEPKSC
light: EIVLTQSPATLSLSPGERATLSCRASKGVSTSGYSYLHWYQQKPGQAPRLLIYLASYLESGVPARFSGSGSGTDFTLTISSLEPEDFAVYYCQHSRDLPLTFGGGTKVEIKRTVAAPSVFIFPPSDEQLKSGTASVVCLLNNFYPREAKVQWKVDNALQSGNSQESVTEQDSKDSTYSLSSTLTLSKADYEKHKVYACEVTHQGLSSPVTKSFNRGEC
B1 returned an EC50 (nM), PD-1/PD-L1 Blockade Bioassay of 0.586 nM.
